# Source: the supplement of paper PMC10600219
# Structures can show the parent of a compound that is named as a salt. In all, about 2,800 compounds were measured (“cell viability relative to vehicle”: median about 0.98, lowest 2% from about 0.45 on). The list shows a part of the results.
# Tested on: NCI-H2228 alectinib-DTP
# Experiment: cell viability relative to vehicle (fraction of vehicle); NCI-H2228 is an ALK-positive lung cancer line and DTP means drug-tolerant persister; higher = less growth inhibition
# Conditions: 100 nM; treatment time 6 days
# In short: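 The 3114-agent TargetMol anti-cancer compound library was tested at 100 nM for 6 days on parental NCI-H2228 cells and on persister cells derived with 1000 nM of a targeted drug for 13 days. ATP readout by the CellTiter-Glo 3D Cell Viability Assay gave cell viability relative to DMSO vehicle-treated cells.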
row,SMILES,cell viability
1,CCCCCCCCCCCCCCCCn1cc[n+](Cc2ccccc2)c1C,0.946
2,CSc1nc2cc(Cl)c(Oc3cccc(Cl)c3Cl)cc2[nH]1 [Triclabendazole],0.984
3,Cc1ccccc1N1CCN(CCc2nnc3n2CCCC3)CC1 [Dapiprazole Hydrochloride],1
4,Nc1ccc(-c2ccc3ncc4ccc(=O)n(-c5cccc(C(F)(F)F)c5)c4c3c2)cn1 [Torin 2],0.414
5,Cc1cnc(-c2ccccc2C(C)C)nc1NCc1ccc(-n2ccnn2)cc1,0.982
6,O=C(CCNNC(=O)c1ccncc1)NCc1ccccc1 [Nialamide],1.01
7,CC1(C)C(O[C@@H]2OC[C@@H](O)[C@H](O)[C@H]2O)CC[C@]23CC24CC[C@]2(C)[C@@H]([C@@]5(C)CC[C@@H](C(C)(C)O)O5)[C@H](O)C[C@@]2(C)C4C[C@@H](O[C@@H]2O[C@H](CO)[C@@H](O)[C@H](O)[C@H]2O)C13 (stereo partly drawn) [Astragaloside IV],0.823
8,CN1C(=O)C(Cc2c[nH]c3ccccc23)NC1=S (stereo not drawn) [Necrostatin-1],0.772
9,CCN(CC)CCOc1ccc(Nc2ncc3cc(-c4c(Cl)cccc4Cl)c(=O)n(C)c3n2)cc1,0.445
10,NS(=O)(=O)c1ccc(S(=O)(=O)Nc2cccc3c(Cl)c[nH]c23)cc1 [Indisulam],0.961
11,CCn1c(-c2nonc2N)nc2c(C#CC(C)(C)O)ncc(OC[C@H]3CCCNC3)c21,0.678
12,Nc1nc(OCC2CCCCC2)c2[nH]cnc2n1,1.01
13,CC=CC1=C(C(=O)O)N2C(=O)[C@@H](NC(=O)[C@H](N)c3ccc(O)cc3)[C@H]2SC1 [Cefprozil hydrate],0.996
14,CC(C)OC(=O)C(C)(C)Oc1ccc(C(=O)c2ccc(Cl)cc2)cc1 [Fenofibrate],1.09
15,OCCOc1ccc(/C(=C(/CCCl)c2ccccc2)c2ccccc2)cc1 [Ospemifene],0.912
16,C=C1CC/C=C(\C)CC[C@@H]2[C@@H]1CC2(C)C [β-Caryophyllene],1.09
17,C[C@H]1[C@H](C)CC[C@]2(C(=O)O[C@@H]3O[C@H](CO[C@@H]4O[C@H](CO)[C@@H](O[C@@H]5O[C@H](C)[C@H](O)[C@@H](O)[C@H]5O)[C@H](O)[C@H]4O)[C@@H](O)[C@H](O)[C@H]3O)CC[C@]3(C)C(=CC[C@@H]4[C@@]5(C)C[C@@H](O)[C@H](O)[C@@](C)(CO)[C@@H]5CC[C@]43C)[C@H]12 [Asiaticoside],1
18,O=C(NN=Cc1c(O)ccc2ccccc12)c1ccncc1,0.75
19,Cc1ccc(NC(=O)C2(c3ccc4c(c3)OC(F)(F)O4)CC2)nc1-c1cccc(C(=O)O)c1 [Lumacaftor],0.783
20,CNC(=O)c1ccc(Nc2ncc(C(F)(F)F)c(NCc3nccnc3N(C)S(C)(=O)=O)n2)cc1 [Defactinib],1.01
21,Cn1cc(/C=C2\C(=O)Nc3cccnc32)c2ccccc21,0.799
22,CNC(=O)c1cc(Oc2ccc3nc(N[C@@H]4CCCC[C@H]4O)sc3c2)ccn1,1.15
23,CC(N)CCCC(C)(C)O (stereo not drawn) [Heptaminol hydrochloride],1.03
24,N#CCC(=O)NN [Cyanoacetohydrazide],1.18
25,CC(C)(C)c1ccc(S(=O)(=O)/C=C/C#N)cc1,1.06
26,COc1nccnc1NS(=O)(=O)c1ccc(N)cc1 [Sulfalen],1.25

row,SMILES,cell viability
1,COc1ccc2cc(C(C)C(=O)Oc3ccc(C(N)=S)cc3)ccc2c1 (stereo not drawn),0.982
2,COc1ccc(-c2nc(-c3cc(C(F)(F)F)cc(C(F)(F)F)c3)n(Cc3ccc(C(N)=O)cc3)c2-c2ccc(OC)cc2)cc1 [Apoptozole],0.817
3,COc1ccc(/C(C#N)=C/c2ccc(N3CCC(O)CC3)s2)cc1OC,0.953
4,CC(=O)c1c(C)c2cnc(Nc3ccc(N4CCNCC4)cn3)nc2n(C2CCCC2)c1=O [Palbociclib],0.797
5,CC(=O)c1c(C)c2cnc(Nc3ccc(N4CCNCC4)cn3)nc2n(C2CCCC2)c1=O [Palbociclib Isethionate],0.968
6,COC1=CC(=O)c2ccccc2C1=O [2-Methoxynaphthoquinone],1.06
7,CS(=O)(=O)c1cccc(C[C@H](NC(=O)c2c(Cl)cc3c(c2Cl)CCN(C(=O)c2ccc4ccoc4c2)C3)C(=O)O)c1 [Lifitegrast],1.03
8,CCCNC(=O)Nc1ccc(Oc2ncnc3cc(OC)c(OC)cc23)cc1Cl,1.12
9,NC(=O)c1ccc(-c2nc(-c3ccccn3)c(-c3ccc4c(c3)OCO4)[nH]2)cc1,0.891
10,Cc1cn(-c2cc(NC(=O)c3ccc(C)c(Nc4nccc(-c5cccnc5)n4)c3)cc(C(F)(F)F)c2)cn1 [Nilotinib],0.965
11,C[C@@H](O[C@H]1OCCN(Cc2n[nH]c(=O)[nH]2)[C@H]1c1ccc(F)cc1)c1cc(C(F)(F)F)cc(C(F)(F)F)c1 [Aprepitant],0.907
12,CN/C(=N\CCSCc1nc[nH]c1C)NC#N [Cimetidine],0.96
13,COc1ccc(C2=N[C@@H](c3ccc(Cl)cc3)[C@@H](c3ccc(Cl)cc3)N2C(=O)N2CCNC(=O)C2)c(OC(C)C)c1 [Nutlin3],1.13
14,COc1ccc(C2=N[C@@H](c3ccc(Cl)cc3)[C@@H](c3ccc(Cl)cc3)N2C(=O)N2CCNC(=O)C2)c(OC(C)C)c1 [Nutlin-3a],0.977
15,COc1ccc(S(=O)(=O)N(Cc2cccnc2)[C@@H](C(=O)NO)C(C)C)cc1,1.06
16,O=C(O)c1cc(N(Cc2ccccc2O)Cc2cc(O)ccc2O)ccc1O [lavendustin A],1.07
17,Cc1cn([C@H]2C[C@H](O)[C@@H](COP(=O)(O)OP(=O)(O)OP(=O)(O)O)O2)c(=O)[nH]c1=O [Deoxythymidine triphosphate],1.05
18,C/C(=C\C(=O)OCCCCCCCCC(=O)O)C[C@@H]1OC[C@H](C[C@@H]2O[C@H]2[C@@H](C)[C@H](C)O)[C@@H](O)[C@H]1O [Mupirocin],0.964
19,N#C/C(=C\c1ccc(O)c(O)c1)C(=O)NCCCc1ccccc1,1.03
20,CCCCCCCCCCCCCCCC(=O)O [Palmitic acid],1.27
21,O=C(O)c1cc(/N=N/c2ccc(S(=O)(=O)Nc3ccccn3)cc2)ccc1O [Sulfasalazine],0.865
22,C#C[C@]1(O)CC[C@H]2[C@@H]3CCC4=CC(=O)CC[C@@H]4[C@H]3C(=C)C[C@@]21CC [Etonogestrel],0.908
23,NC(=O)c1ccc(I)c([N+](=O)[O-])c1 [Iniparib],1.08
24,c1ccc(-c2oc3ncnc(NC[C@@H]4CCCO4)c3c2-c2ccccc2)cc1,1.06
25,COc1c(O)cc2oc(-c3ccccc3)cc(=O)c2c1O [Oroxylin A],1.13
26,O=C(O)[C@H](CC(=O)N1C[C@H]2CCCC[C@H]2C1)Cc1ccccc1 [Mitiglinide calcium],0.857

row,SMILES,cell viability
1,C[C@]12CCC3=C4CCC(=O)C=C4CC[C@H]3[C@@H]1CC[C@@]2(O)CC#N [Dienogest],0.969
2,COC(=O)c1ccc(O)c(OC)c1 [Methyl Vanillate],1.05
3,CS(=O)(=O)c1ccc(-c2nnc(/C=C/c3nnc(-c4ccc(C#N)cc4)o3)n2-c2ccccc2Cl)nc1,0.736
4,COc1cc2ncnc(-n3nc(-c4ccccn4)nc3N)c2cc1OC,1.06
5,Nc1ncnc2c1ncn2C1OC(COP(=O)(O)O)C(O)C1O (stereo not drawn) [Adenosine 5'-monophosphate monohydrate],1.06
6,O=C(O)c1ccccc1O [Salicylic acid],1.08
7,O=c1oc2cc(O)ccc2s1 [Tioxolone],1.13
8,Cc1[nH]nc(C(F)(F)F)c1Cc1sc2c(c1C(=O)N1C[C@](C)(O)CO1)c(=O)n(C)c(=O)n2C(C)C,1.11
9,COc1cc2ncnc(Nc3cccc(Cl)c3)c2cc1OC,0.759
10,Cc1cccc(-c2[nH]c(C(C)(C)C)nc2-c2ccc3c(c2)OCO3)n1,1.02
11,CC(NC(=O)c1ccccc1/N=C/c1c(O)ccc2ccccc12)c1ccccc1 (stereo not drawn) [Sirtinol],0.976
12,C=CCSC[C@H](N)C(=O)O [S-allyl-L-cysteine],1.06
13,CC(C)(OCc1nn(Cc2ccccc2)c2ccccc12)C(=O)O [Bindarit],1.1
14,Nc1n[n+]([O-])c2ccccc2[n+]1[O-] [Tirapazamine],1.04
15,O=C(Nc1nc2ccc(NC(=O)C34CC5CC(CC(C5)C3)C4)cc2s1)c1ccccc1,1.01
16,CCn1c(C(=O)N(C2CC2)C2CC2)cc2c3c(ncn3C)c(Nc3cc(C)n(C)n3)nc21,0.919
17,CCc1nc(N)nc(N)c1-c1ccc(Cl)cc1 [Pyrimethamine],0.969
18,CC(C)NCC(O)COc1ccc(CCOCC2CC2)cc1 (stereo not drawn) [Betaxolol hydrochloride],1.04
19,CN1CC(=O)N2[C@H](c3ccc4c(c3)OCO4)c3[nH]c4ccccc4c3C[C@@H]2C1=O [Tadalafil],0.916
20,O=C(O)c1cn(C2CC2)c2cc(N3CCNCC3)c(F)cc2c1=O [Ciprofloxacin hydrochloride],1.01
21,O=C(O)c1cn(C2CC2)c2cc(N3CCNCC3)c(F)cc2c1=O [Ciprofloxacin],0.874
22,C/C=C(\C)C(=O)OC1c2c(ccc3ccc(=O)oc23)OC(C)(C)C1OC(=O)/C(C)=C/C (stereo not drawn) [Praeruptorin B],1.02
23,CN/C(=C\[N+](=O)[O-])NCCSCc1ccc(CN(C)C)o1 [Ranitidin],1.04
24,COc1ccc(-c2cc(=S)ss2)cc1 [Anethole trithione],0.97
25,COc1cc(OC2CCN(C)CC2)ccc1Nc1ncc2c(n1)n(C1CCCC1)c(=O)n2C,0.854
26,C/C(=C\c1csc(C)n1)[C@@H]1C[C@@H]2O[C@]2(C)CCC[C@H](C)[C@H](O)[C@@H](C)C(=O)C(C)(C)[C@@H](O)CC(=O)N1 [Ixabepilone],0.454
